From the supplement of paper PMC12217912
Some of the results follow. The full chains were built here from the parent and the listed change. Inactive controls read about 0.05.

B1: TEV protease; numbered along this chain (parent)
chain: MGESLFKGPRDYNPISSSICHLTNESDGHTTSLYGIGFGPFIITNKHLFRRNNGTLVVQSLHGVFKVKDTTTLQQHLVDGRDMIIIRMPKDFPPFPQKLKFREPQREERICLVTTNFQTKSMSSMVSDTSCTFPSGDGIFWKHWIQTKDGQCGSPLVSTRDGFIVGIHSASNFTNTNNYFTSVPKNFMELLTNQEAQQWVSGWRLNADSVLWGGHKVFMVKPEEPFQPVKEATQL

Variants of: B1
Assay: raw area under fraction-flipped curve 0-4 h after induction (AUC4h, not background-subtracted), DNA-recorder readout of cleavage of the substrate (dimensionless); higher = more cleavage of the substrate by the protease variant
Conditions: temperature: 34 °C; time window: 0-4 h after rhamnose induction
Method: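 In vivo DNA recorder in E. coli TOP10(DE3) ΔrhaA at 34 °C. Each TEVp single-site mutant (parent TEVp 0) is paired with a single-site variant of the 7-mer TEVs (canonical ENLYFQ|S). The substrate sits between flexible linkers in a Bxb1-sfGFP-TEVs-SsrA fusion, so cleavage stabilises Bxb1 and speeds flipping of a recombination array, read by NGS. The value is the raw area under the fraction-flipped curve over 0-4 h after rhamnose induction (AUC4h), with ≥20 reads per time point. It is not background-subtracted; inactive controls average about 0.047.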
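Also: Bxb1 expression induced with 0.2% (w/v) L-rhamnose at OD600 near 0.5, cultures sampled hourly, flipped fraction per protease–substrate barcode pair counted by paired-end Illumina sequencing.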

| Variant | area with substrate EALYFQS | area with substrate ECLYFQS | area with substrate EDLYFQS | area with substrate EELYFQS | area with substrate EFLYFQS | area with substrate EHLYFQS | area with substrate EILYFQS | area with substrate EKLYFQS | area with substrate ELLYFQS | area with substrate EMLYFQS | area with substrate EQLYFQS | area with substrate ERLYFQS | area with substrate ESLYFQS | area with substrate EVLYFQS | area with substrate EGLYFQS | area with substrate EWLYFQS | area with substrate EYLYFQS | area with substrate EPLYFQS | area with substrate ETLYFQS |
| --- | --- | --- | --- | --- | --- | --- | --- | --- | --- | --- | --- | --- | --- | --- | --- | --- | --- | --- | --- |
| K120F | 0.105 | 0.122 | 0.116 | 0.127 | 0.105 | 0.119 | 0.0874 | 0.07 | 0.123 | 0.121 | 0.104 | 0.0612 | 0.105 | 0.0758 | – | – | – | – | – |
| R160D | 0.123 | 0.116 | 0.145 | – | – | 0.107 | 0.092 | 0.121 | 0.0915 | 0.113 | 0.139 | 0.111 | 0.118 | 0.123 | 0.161 | 0.0956 | 0.116 | – | – |
| R160V | 0.103 | 0.106 | 0.145 | 0.104 | 0.115 | 0.123 | 0.0896 | 0.13 | 0.11 | 0.111 | 0.104 | 0.0894 | 0.114 | 0.0954 | – | 0.106 | – | 0.127 | 0.125 |
| P104T | 0.044 | 0.0731 | – | 0.0955 | – | 0.079 | 0.0333 | – | – | 0.0471 | – | 0.062 | 0.0654 | – | – | – | – | – | – |
| K46S | 0.102 | 0.0861 | 0.111 | 0.115 | 0.0826 | 0.0913 | 0.0778 | – | 0.0836 | 0.0846 | 0.112 | 0.0862 | 0.0937 | 0.0776 | 0.0576 | 0.0857 | 0.0899 | 0.114 | – |
| G136Q | 0.116 | 0.0829 | 0.111 | 0.141 | 0.1 | 0.127 | 0.0945 | 0.112 | 0.104 | 0.116 | 0.115 | 0.113 | 0.103 | 0.083 | 0.0966 | 0.109 | 0.0961 | 0.141 | 0.0931 |
| G136R | 0.115 | 0.125 | – | 0.0875 | 0.123 | 0.127 | 0.0989 | 0.118 | 0.0928 | 0.141 | 0.0876 | 0.0989 | 0.0924 | 0.0733 | – | – | 0.0901 | 0.104 | 0.141 |
| P96S | 0.16 | – | – | – | – | – | 0.0938 | 0.108 | 0.0988 | – | – | 0.0978 | 0.115 | – | – | – | 0.109 | 0.129 | 0.115 |
| P96V | 0.125 | 0.105 | 0.122 | 0.165 | 0.111 | – | 0.101 | 0.0945 | 0.0836 | 0.105 | 0.107 | 0.0839 | 0.0984 | 0.0885 | 0.0816 | 0.0896 | 0.0878 | 0.115 | 0.1 |
| A232M | 0.0886 | 0.0538 | 0.124 | – | – | – | 0.075 | – | 0.0943 | – | – | 0.112 | 0.121 | – | 0.111 | 0.0988 | – | – | – |
| D128A | 0.147 | 0.12 | – | 0.114 | 0.128 | – | 0.112 | – | – | – | 0.161 | – | 0.121 | 0.0508 | – | 0.13 | – | – | – |
| L112S | 0.0717 | – | 0.134 | – | 0.0792 | – | 0.0045 | 0.0632 | 0.0594 | 0.0824 | 0.0565 | – | 0.0762 | 0.0659 | – | 0.0751 | – | 0.0717 | 0.102 |
| L112F | 0.104 | 0.096 | 0.128 | 0.102 | 0.0916 | 0.0902 | 0.0907 | 0.112 | 0.0631 | – | 0.0861 | 0.12 | 0.108 | 0.0854 | 0.0823 | – | 0.105 | 0.117 | 0.0939 |
| L56Y | 0.066 | 0.0761 | 0.0562 | – | – | – | – | 0.0676 | 0.0586 | 0.051 | – | – | 0.0516 | 0.0383 | – | 0.0524 | – | – | – |
| K148A | 0.117 | 0.112 | 0.154 | 0.12 | 0.0998 | – | 0.0986 | 0.119 | – | – | – | 0.0895 | 0.1 | 0.0799 | 0.084 | 0.105 | 0.163 | 0.102 | – |
| E224R | 0.0553 | – | – | – | 0.104 | – | 0.0666 | 0.0876 | 0.0812 | – | 0.102 | – | 0.0969 | 0.0885 | 0.102 | 0.0981 | – | – | – |
| E224Y | 0.117 | 0.0933 | 0.119 | 0.126 | – | 0.0996 | 0.0901 | 0.093 | 0.0661 | 0.129 | 0.085 | – | 0.0831 | 0.0772 | – | – | – | 0.0988 | – |
| F117N | 0.0964 | 0.0959 | 0.111 | 0.126 | 0.124 | – | 0.101 | 0.077 | – | 0.0847 | – | 0.0955 | 0.107 | 0.0804 | 0.111 | 0.111 | – | – | – |
| P93S | 0.101 | 0.108 | 0.0996 | 0.141 | 0.0918 | – | 0.0685 | – | 0.091 | – | 0.0999 | – | 0.118 | 0.0784 | 0.104 | 0.0983 | – | – | – |
| R10S | 0.114 | 0.128 | 0.1 | 0.119 | 0.0867 | 0.0927 | 0.0833 | 0.0899 | 0.108 | 0.112 | – | – | 0.0999 | 0.102 | 0.0999 | 0.102 | 0.0792 | 0.108 | 0.166 |
| W144V | 0.0826 | 0.0887 | 0.107 | 0.106 | 0.102 | 0.096 | 0.0882 | 0.0705 | 0.0879 | – | – | 0.0838 | 0.0827 | 0.087 | 0.0994 | – | 0.0578 | 0.0935 | – |
| W144P | 0.197 | 0.0808 | 0.106 | 0.106 | – | 0.0801 | 0.0721 | 0.0856 | – | – | 0.104 | 0.0796 | 0.0886 | 0.082 | 0.0839 | 0.0656 | 0.0794 | – | 0.0964 |
| W144R | 0.0709 | 0.102 | 0.0922 | – | – | – | 0.0658 | – | – | 0.0892 | 0.103 | 0.0924 | – | 0.0593 | – | 0.0734 | – | – | 0.108 |
| W144H | 0.094 | 0.107 | 0.0954 | – | – | 0.109 | 0.0964 | 0.0213 | – | – | 0.0567 | 0.0897 | 0.0778 | 0.0675 | – | – | 0.0871 | 0.0668 | – |
| P40N | 0.134 | 0.113 | 0.144 | 0.143 | 0.102 | – | 0.11 | 0.108 | 0.0969 | 0.13 | 0.133 | 0.106 | 0.181 | 0.0976 | – | 0.0517 | – | 0.132 | 0.104 |
| P40T | 0.133 | 0.119 | – | 0.133 | 0.0906 | 0.108 | 0.0873 | 0.118 | 0.0861 | 0.13 | – | 0.107 | 0.108 | 0.0892 | 0.0841 | 0.135 | – | – | 0.128 |
